Results: the supplement of paper PMC3334620
Whole data set: some 33,000 sequences, median “E-score (-0.5 to 0.5)” near -0.011, cut for the highest 2% near 0.28. This is one part of the list.

Target: T1, Gcr1 (UniProt P07261)
T1 sequence: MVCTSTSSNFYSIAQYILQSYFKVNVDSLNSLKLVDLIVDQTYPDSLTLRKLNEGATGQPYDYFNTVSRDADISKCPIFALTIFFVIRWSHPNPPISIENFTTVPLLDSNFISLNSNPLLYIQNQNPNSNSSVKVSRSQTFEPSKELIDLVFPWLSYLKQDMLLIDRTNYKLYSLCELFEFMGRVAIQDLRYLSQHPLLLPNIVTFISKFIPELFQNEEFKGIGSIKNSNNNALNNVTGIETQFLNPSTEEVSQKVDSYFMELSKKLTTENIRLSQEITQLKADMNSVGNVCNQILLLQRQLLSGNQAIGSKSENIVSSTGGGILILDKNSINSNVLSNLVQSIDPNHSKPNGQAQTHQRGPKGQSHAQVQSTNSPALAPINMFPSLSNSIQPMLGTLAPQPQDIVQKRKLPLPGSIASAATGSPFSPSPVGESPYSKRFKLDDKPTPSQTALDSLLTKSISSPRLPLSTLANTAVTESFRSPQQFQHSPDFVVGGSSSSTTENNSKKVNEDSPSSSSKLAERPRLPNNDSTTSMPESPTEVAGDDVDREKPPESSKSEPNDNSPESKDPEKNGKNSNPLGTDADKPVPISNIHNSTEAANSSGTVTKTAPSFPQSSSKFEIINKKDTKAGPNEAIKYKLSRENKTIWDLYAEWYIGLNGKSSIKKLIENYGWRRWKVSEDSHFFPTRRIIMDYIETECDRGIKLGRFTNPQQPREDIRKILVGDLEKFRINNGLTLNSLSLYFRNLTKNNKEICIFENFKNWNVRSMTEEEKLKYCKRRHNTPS
Assay: PBM E-score (8-mer binding enrichment) (E-score (-0.5 to 0.5)); higher = stronger / more preferred TF binding; most listed sequences are background and not binding sites
Conditions: protein concentration: 100 nM; construct: GST-full length
Procedure: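 Universal 'all 10-mer' protein binding microarrays (Agilent AMADID 015681) probed with GST-tagged S. cerevisiae TFs (full-length or DBD) made by in vitro transcription/translation (PURExpress), about 100-200 nM. Bound TF was detected with fluorescent anti-GST. Each ungapped 8-mer (which stands for itself and its reverse complement) is scored by the PBM enrichment score (E-score), a modified Wilcoxon-Mann-Whitney statistic from -0.5 to +0.5, computed with the Universal PBM Analysis Suite. Scale: above 0.35 generally sequence-specific binding.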

Sequence	PBM E-score
CAACTAAA	0.11
ACGTTTAA	0.0916
ATCTTTGC	0.0825
GGCGTCCA	0.436
CAACGTTG	0.0373
AATTCGGA	0.16
CTCGTTAA	0.00746
GCAAACAA	0.0185
AGTCAAAC	-0.0456
GGCAACTA	0.143
CAACATCG	-0.119
ACGGGTAT	0.0426
GATAAACA	0.0306
CGGATCAG	0.11
ACATAGGG	0.0186
GCTTTACA	-0.0635
GGACACCA	0.24
GAGCACTC	-0.109
CTTGATAC	0.0039
GCCATAAC	-0.048
AAGCGCAC	-0.31
CAGGCGCC	0.361
TACTCATA	-0.0456
CCTAAAAC	0.2
CTTCCACA	0.349

Sequence	PBM E-score
AGGATTAC	0.0473
ATCGCCAC	-0.115
GGTCTGGA	0.0233
ACGAGCTA	0.029
GAAATCCC	0.143
ATGTTAAG	0.0601
AAACTTTG	0.124
GGGCCCTA	0.0423
GGCGTCAC	-0.128
AACGAAAC	-0.0313
TGAAAGCA	0.00794
CTGAGCCA	-0.125
ACGATCAG	-0.0734
GTAACCTA	0.116
GCTCCAAC	0.0619
AACATCTC	-0.136
AAGGCCAC	-0.0718
AGGAGCGG	0.112
GACGCCGA	0.211
GCCGGGAC	-0.196
CCACCAGC	0.145
CGAGTTCC	0.117
TAATCATA	-0.0415
GAAACTGC	-0.205
CCCCATTC	0.157

Sequence	PBM E-score
GGAGGTAC	-0.246
ATGCCACA	0.251
CGCCGTAG	0.242
CAAAACTC	0.06
GGCGAACC	-0.129
ACTTATGC	0.0516
GAGATATC	-0.163
TCCCGCGA	-0.114
TGATGACA	-0.0722
CGAATTAC	0.0492
GCCCGCTA	-0.125
ACAATACA	-0.0375
CCGCGCGG	0.0164
CGGGTCCA	-0.146
AGGGTGCG	0.0402
GCGTCGCA	0.0686
CACAAATA	0.186
CGATACAA	0.0197
AGAGAGCA	-0.227
ACCAATAC	0.189
TTAACAAA	0.227
ATAAGGTC	-0.0111
AGTACTTA	0.0681
ACGGGATA	0.0896
CCAGGGCA	-0.14

Sequence	PBM E-score
CCCAGGAG	-0.0352
CAGAACAA	0.0719
CCTCGAGC	-0.102
AGCGAACT	-0.126
GACATATC	-0.0369
AGCCAACG	-0.00833
ATGCATTC	-0.0429
GCTCCGCA	0.0293
TCGGAAAA	0.00753
AATGACCA	-0.0269
CGTGCACA	-0.209
AGTTCGAC	0.0317
CATAGCCG	-0.21
ACCACTAC	0.129
GTGCTAAA	0.0224
GCAACTTA	0.223
CCCTCGAA	-0.157
AACAGCAT	0.0511
ATAGGGCA	0.0841
CCATACCG	0.164
GTAAACAC	-0.0659
AGTTAACA	0.157
CACTTTCA	0.169
AGTACCTA	-0.00963
TATGAATA	0.176

Sequence	PBM E-score
GACCGTCA	-0.272
GCATGACC	-0.239
AAGTCGAA	0.0262
CGCTGCGC	0.0562
ATCAATAA	0.0198
AACCGCTA	0.0976
CGTCAAAC	0.0735
AAGCTAGT	-0.01
AACCAATT	0.0895
GCTGTCCA	-0.0454
CTTTGAAA	0.112
TCAGTCCA	-0.276
CGGCGGCA	-0.168
CGGCAGTC	0.00341
TATAGCCA	0.0685
CCAGTTCC	0.145
AAACCTTT	-0.111
CATGTCGA	-0.0877
TAATTTGA	0.0557
TACTTATA	0.118
AAAGATCT	-0.299
ATCTCGCC	-0.116
TCCGGCCA	-0.232
ATACGTTG	0.109
CGCATCAC	0.179

Sequence	PBM E-score
AGTCTGTC	-0.152
ACTAGTGG	0.219
CGACGCAA	-0.234
TCGCCGCA	0.0198
ATAGCAAC	0.0791
AAGAGGGA	-0.189
AGAGACGG	-0.0393
AGGTGTGA	-0.0738
AGCGATAG	-0.122
CCATGTTA	-0.0553
CCTCGTAA	0.0163
ACGAGACC	-0.0249
CGCAGGCG	0.00025
CCAGTTTA	0.069
AGCGTCGG	-0.0683
TAATACCA	0.0622
ACAGAGAG	-0.245
AACTTCTA	0.178
AATGACAA	-0.0872
AGGTCACA	-0.15
GCGGTCAC	-0.0316
AACAACGA	-0.0377
CAGGGCGG	-0.27
AGGACCTA	-0.0741
TAGGCGAA	0.183

Sequence	PBM E-score
ATGCCATG	-0.125
CATCGCGG	-0.132
AGCGCATC	0.127
TGCTGAAA	0.0615
AAATCACT	-0.0987
CTGTCTCC	-0.0163
ACGCTCCT	-0.0698
TACAGGTA	0.0633
AAACCGGC	0.109
GCTTGCAC	-0.1
CCTATCAC	-0.078
AGGAATAT	-0.168
ATTAGGCA	0.00576
CGAGACGA	-0.0255
GGCGCCCC	0.308
GACCTATA	0.0846
AGGCTGCA	-0.0233
ACTGAACT	-0.0849
AGTGCACT	-0.297
GGGAGAAA	-0.0481
GTGTATTA	0.187
CAGGTTGC	0.135
CCGGCTAG	-0.189
GGCCACCC	-0.142
GCAAGACC	-0.0175

Sequence	PBM E-score
CCTTCGGC	-0.142
TAGGTTGA	0.0479
ATCTGGAG	0.0569
CCGTGTGC	-0.0119
ATCAATCA	-0.0168
CGGCTGAA	-0.112
CACATTGG	-0.00213
GCGCTAGC	-0.0426
AACCCTCA	-0.104
AGCGGCCG	0.232
GGACAGCC	-0.0497
GGCCGACA	0.0543
CGCAGCCC	0.324
ATAGTAAT	-0.0398
AGACCAGG	-0.246
AGTTACAA	0.153
TCCTTACA	-0.0132
CGTCCTAC	-0.0419
AAGTGTGA	-0.314
GCCACGCA	-0.0993
ATCTGGAA	0.333
CAAGGGGG	-0.278
CCGTACAC	0.0747
GCAGTGAC	-0.258
GGCATTCA	-0.0582

Sequence	PBM E-score
GGAAAAAC	0.137
GTGCTAGA	0.108
ACACTAAG	-0.00776
TCTATGCA	-0.067
ACGAAGCC	0.428
GACCACGA	-0.0712
ATGACGTG	-0.193
CACGCGTA	-0.0238
CTGTACCA	-0.0787
AATGCTGC	-0.218
CCCATACC	0.124
GAACATCC	0.157
AGCGCAAA	-0.182
AACTAGAT	0.0667
GACGGCGC	-0.0687
TCATGCGA	-0.0623
ATTTCAAC	0.0871
CGAGGCAG	-0.193
AACTCTGC	-0.173
